According to patent publication US20140243322A1, “BIVALENT BROMODOMAIN LIGANDS, AND METHODS OF USING SAME” (Coferon, Inc., priority 2011, published 2014):
Some of these results come from one statement about several compounds together. At least one compound was matched to its structure with a doubt left.

Key:
Type in all cases: binding
Details in all cases: 1 μM protein; test compounds at 0.5, 1 or 2 μM; vs DMSO control
BRD2 tandem = assay: Differential Scanning Fluorimetry (DSF), BRD2 tandem
BRD3 tandem = assay: Differential Scanning Fluorimetry (DSF), BRD3 tandem
BRD4 tandem = assay: Differential Scanning Fluorimetry (DSF), BRD4 tandem

Compound	Temperature Shift (Δ Tm) range, BRD2 tandem (BRD2 tandem)	Temperature Shift (Δ Tm) range, BRD3 tandem (BRD3 tandem)	Temperature Shift (Δ Tm) range, BRD4 tandem (BRD4 tandem)
COc1ccc2c(c1)C(c1ccc(Cl)cc1)=N[C@@H](CC(=O)NCCNC(=O)CNC(=O)C[C@@H]1N=C(c3ccc(Cl)cc3)c3cc(OC)ccc3-n3c(C)nnc31)c1nnc(C)n1-2 [BRD-B-07, 2-((S)-6-(4-chlorophenyl)-8-methoxy-1-methyl-4H-benzo[f][1,2,4]triazolo[4,3-a][1,4]diazepin-4-yl)-N-(2-(2-(2-((S)-6-(4-chlorophenyl)-8-methoxy-1-methyl-4H-benzo[f][1,2,4]triazolo[4,3-a][1,4]diazepin-4-yl)acetamido)acetamido)ethyl)acetamide]	C (0.5-3° C.)	C (0.5-3° C.)	C (0.5-3° C.)
COc1ccc2c(c1)C(c1ccc(Cl)cc1)=N[C@@H](CC(=O)NCCNC(=O)CNC(=O)CNC(=O)C[C@@H]1N=C(c3ccc(Cl)cc3)c3cc(OC)ccc3-n3c(C)nnc31)c1nnc(C)n1-2 [BRD-B-08, 2-((S)-6-(4-chlorophenyl)-8-methoxy-1-methyl-4H-benzo[f][1,2,4]triazolo[4,3-a][1,4]diazepin-4-yl)-N-(2-(2-(2-(2-((S)-6-(4-chlorophenyl)-8-methoxy-1-methyl-4H-benzo[f][1,2,4]triazolo[4,3-a][1,4]diazepin-4-yl)acetamido)acetamido)acetamido)ethyl)acetamide]	C (0.5-3° C.)	B (3-6° C.)	C (0.5-3° C.)
COc1ccc2c(c1)C(c1ccc(Cl)cc1)=N[C@@H](CC(=O)NCCNC(=O)CNC(=O)NCCNC(=O)C[C@@H]1N=C(c3ccc(Cl)cc3)c3cc(OC)ccc3-n3c(C)nnc31)c1nnc(C)n1-2 [BRD-B-09]	C (0.5-3° C.)	B (3-6° C.)	C (0.5-3° C.)
CCNC(=O)C[C@@H]1N=C(c2ccc(Cl)cc2)c2cc(OCCOCCOCCOCCOCCNC(=O)C[C@@H]3N=C(c4ccc(Cl)cc4)c4cc(OC)ccc4-n4c(C)nnc43)ccc2-n2c(C)nnc21 [BRD-B-12, N-(14-(((4S)-6-(4-chlorophenyl)-4-(2-(ethylamino)-2-oxoethyl)-1-methyl-4H-benzo[f][1,2,4]triazolo[4,3-a][1,4]diazepin-8-yl)oxy)-3,6,9,12-tetraoxatetradecyl)-2-((4S)-6-(4-chlorophenyl)-8-methoxy-1-methyl-4H-benzo[f][1,2,4]triazolo[4,3-a][1,4]diazepin-4-yl)acetamide]	B (3-6° C.)	B (3-6° C.)	C (0.5-3° C.)
CCNC(=O)C[C@@H]1N=C(c2ccc(Cl)cc2)c2cc(OCCOCCOCCOCCOCCOCCNC(=O)C[C@@H]3N=C(c4ccc(Cl)cc4)c4cc(OC)ccc4-n4c(C)nnc43)ccc2-n2c(C)nnc21 [BRD-B-13, N-(17-(((4S)-6-(4-chlorophenyl)-4-(2-(ethylamino)-2-oxoethyl)-1-methyl-4H-benzo[f][1,2,4]triazolo[4,3-a][1,4]diazepin-8-yl)oxy)-3,6,9,12,15-pentaoxaheptadecyl)-2-((4S)-6-(4-chlorophenyl)-8-methoxy-1-methyl-4H-benzo[f][1,2,4]triazolo[4,3-a][1,4]diazepin-4-yl)acetamide]	A (6-9° C.)	B (3-6° C.)	B (3-6° C.)
CCNC(=O)C[C@@H]1N=C(c2ccc(Cl)cc2)c2cc(OCCOCCOCCOCCOCCOCCOCCNC(=O)C[C@@H]3N=C(c4ccc(Cl)cc4)c4cc(OC)ccc4-n4c(C)nnc43)ccc2-n2c(C)nnc21 [BRD-B-14, N-(20-(((4S)-6-(4-chlorophenyl)-4-(2-(ethylamino)-2-oxoethyl)-1-methyl-4H-benzo[f][1,2,4]triazolo[4,3-a][1,4]diazepin-8-yl)oxy)-3,6,9,12,15,18-hexaoxaicosyl)-2-((4S)-6-(4-chlorophenyl)-8-methoxy-1-methyl-4H-benzo[f][1,2,4]triazolo[4,3-a][1,4]diazepin-4-yl)acetamide]	B (3-6° C.)	B (3-6° C.)	B (3-6° C.)
CCNC(=O)C[C@@H]1N=C(c2ccc(Cl)cc2)c2cc(OCCOCCOCCOCCOCCOCCOCCOCCNC(=O)C[C@@H]3N=C(c4ccc(Cl)cc4)c4cc(OC)ccc4-n4c(C)nnc43)ccc2-n2c(C)nnc21 [BRD-B-15, N-(23-(((4S)-6-(4-chlorophenyl)-4-(2-(ethylamino)-2-oxoethyl)-1-methyl-4H-benzo[f][1,2,4]triazolo[4,3-a][1,4]diazepin-8-yl)oxy)-3,6,9,12,15,18,21-heptaoxatricosyl)-2-((4S)-6-(4-chlorophenyl)-8-methoxy-1-methyl-4H-benzo[f][1,2,4]triazolo[4,3-a][1,4]diazepin-4-yl)acetamide]	A (6-9° C.)	B (3-6° C.)	A (6-9° C.)
COc1ccc2c(c1)C(c1ccc(Cl)cc1)=N[C@@H](CC(=O)NCCOCCOCCOCCOCCNC(=O)C[C@@H]1N=C(c3ccc(Cl)cc3)c3cc(OC)ccc3-n3c(C)nnc31)c1nnc(C)n1-2 [BRD-B-16, (S)—N,N′-(3,6,9,12-tetraoxatetradecane-1,14-diyl)bis(2-((S)-6-(4-chlorophenyl)-8-methoxy-1-methyl-4H-benzo[f][1,2,4]triazolo[4,3-a][1,4]diazepin-4-yl)acetamide)]	C (0.5-3° C.)	B (3-6° C.)	B (3-6° C.)
COc1ccc2c(c1)C(c1ccc(Cl)cc1)=N[C@@H](CC(=O)NCCOCCOCCOCCOCCOCCNC(=O)C[C@@H]1N=C(c3ccc(Cl)cc3)c3cc(OC)ccc3-n3c(C)nnc31)c1nnc(C)n1-2 [BRD-B-17, (S)—N,N′-(3,6,9,12,15-pentaoxaheptadecane-1,17-diyl)bis(2-((S)-6-(4-chlorophenyl)-8-methoxy-1-methyl-4H-benzo[f][1,2,4]triazolo[4,3-a][1,4]diazepin-4-yl)acetamide)]	B (3-6° C.)	B (3-6° C.)	B (3-6° C.)
COc1ccc2c(c1)C(c1ccc(Cl)cc1)=N[C@@H](CC(=O)NCCOCCOCCOCCOCCOCCOCCNC(=O)C[C@@H]1N=C(c3ccc(Cl)cc3)c3cc(OC)ccc3-n3c(C)nnc31)c1nnc(C)n1-2 [BRD-B-18, (S)—N,N′-(3,6,9,12,15,18-hexaoxaicosane-1,20-diyl)bis(2-((S)-6-(4-chlorophenyl)-8-methoxy-1-methyl-4H-benzo[f][1,2,4]triazolo[4,3-a][1,4]diazepin-4-yl)acetamide)]	B (3-6° C.)	B (3-6° C.)	B (3-6° C.)
COc1ccc2c(c1)C(c1ccc(Cl)cc1)=N[C@@H](CC(=O)NCCOCCOCCOCCOCCOCCOCCOCCNC(=O)C[C@@H]1N=C(c3ccc(Cl)cc3)c3cc(OC)ccc3-n3c(C)nnc31)c1nnc(C)n1-2 [BRD-B-19, (S)—N,N′-(3,6,9,12,15,18,21-heptaoxatricosane-1,23-diyl)bis(2-((S)-6-(4-chlorophenyl)-8-methoxy-1-methyl-4H-benzo[f][1,2,4]triazolo[4,3-a][1,4]diazepin-4-yl)acetamide)]	B (3-6° C.)	B (3-6° C.)	C (0.5-3° C.)
CCNC(=O)C[C@@H]1N=C(c2ccc(Cl)cc2)c2cc(OCCOCCOCCOCCOCCOCCOCCOCCOCCNC(=O)C[C@@H]3N=C(c4ccc(Cl)cc4)c4cc(OC)ccc4-n4c(C)nnc43)ccc2-n2c(C)nnc21 [BRD-B-20, N-(26-(((4S)-6-(4-chlorophenyl)-4-(2-(ethylamino)-2-oxoethyl)-1-methyl-4H-benzo[f][1,2,4]triazolo[4,3-a][1,4]diazepin-8-yl)oxy)-3,6,9,12,15,18,21,24-octaoxahexacosyl)-2-((4S)-6-(4-chlorophenyl)-8-methoxy-1-methyl-4H-benzo[f][1,2,4]triazolo[4,3-a][1,4]diazepin-4-yl)acetamide]	A (6-9° C.)	B (3-6° C.)	A (6-9° C.)
CCNC(=O)C[C@@H]1N=C(c2ccc(Cl)cc2)c2cc(OCCOCCOCCOCCOCCOCCOCCOCCOCCOCCNC(=O)C[C@@H]3N=C(c4ccc(Cl)cc4)c4cc(OC)ccc4-n4c(C)nnc43)ccc2-n2c(C)nnc21 [BRD-B-21, N-(29-(((4S)-6-(4-chlorophenyl)-4-(2-(ethylamino)-2-oxoethyl)-1-methyl-4H-benzo[f][1,2,4]triazolo[4,3-a][1,4]diazepin-8-yl)oxy)-3,6,9,12,15,18,21,24,27-nonaoxanonacosyl)-2-((4S)-6-(4-chlorophenyl)-8-methoxy-1-methyl-4H-benzo[f][1,2,4]triazolo[4,3-a][1,4]diazepin-4-yl)acetamide]	B (3-6° C.)	A (6-9° C.)	C (0.5-3° C.)
COc1ccc2c(c1)C(c1ccc(Cl)cc1)=N[C@@H](CC(=O)NCCOCCOCCOCCOCCOCCOCCOCCOCCNC(=O)C[C@@H]1N=C(c3ccc(Cl)cc3)c3cc(OC)ccc3-n3c(C)nnc31)c1nnc(C)n1-2 [BRD-B-22, (S)—N,N′-(3,6,9,12,15,18,21,24-octaoxahexacosane-1,26-diyl)bis(2-((4S)-6-(4-chlorophenyl)-8-methoxy-1-methyl-4H-benzo[1,2,4]triazolo[4,3-a][1,4]diazepin-4-yl)acetamide)]	B (3-6° C.)	A (6-9° C.)	B (3-6° C.)
